Reference: paper PMC6212790
Some of the results follow. At the low end of the ranking the order means little.

What follows are sequences tested against T1, GST-Rok (full length) (UniProt O34857) (assay: protein binding microarray). Conditions: Rok is a gene silencer of Bacillus subtilis; high values mean tight binding; most listed sequences are background and not binding sites; double strand, one strand shown.
T1 sequence: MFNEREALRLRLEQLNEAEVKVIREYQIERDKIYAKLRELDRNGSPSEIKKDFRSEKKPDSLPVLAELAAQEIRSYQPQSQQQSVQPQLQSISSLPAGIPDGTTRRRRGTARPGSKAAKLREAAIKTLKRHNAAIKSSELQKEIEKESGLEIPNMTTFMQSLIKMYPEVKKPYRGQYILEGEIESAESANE
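Note: rank score from −0.5 (least bound) to 0.5 (best bound).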

Row | Sequence | binding signal [E-score]
1 | ATAATAAC | 0.312
2 | TAGCCTCA | -0.187
3 | TAAGTTAA | 0.115
4 | CCTCATTA | 0.0482
5 | ATGAAGGA | 0.00444
6 | ACACCGTC | -0.197
7 | AGAGGCAG | -0.233
8 | AGCCGCGA | -0.324
9 | CCCAAGAG | -0.222
10 | ACAAAACC | 0.128
11 | ACTGGTGG | -0.172
12 | CCGCACCG | -0.183
13 | AAATCGCG | 0.148
14 | ACCTCACT | 0.0538
15 | GCCGGGAC | -0.294
16 | ACTACTCT | 0.184
17 | AAGACTAT | 0.00947
18 | GCTCTAAC | -0.00172
19 | CCGGCAAA | -0.201
20 | CCCTAAGA | -0.154
21 | CGTTCTTC | -0.184
22 | TACTCCGA | -0.0414

Row | Sequence | binding signal [E-score]
23 | ACGGGGTG | -0.298
24 | CCACTCGC | -0.298
25 | ATCGCGCC | -0.076
26 | AGTATTTA | 0.344
27 | ACAACTAC | 0.311
28 | CTATGCAG | 0.106
29 | CTGTCGGA | -0.204
30 | GACGGCTC | -0.232
31 | AAAAGAAG | -0.0684
32 | AGAATCTG | -0.0414
33 | ACACCAAG | 0.000503
34 | ATTCCTGA | 0.107
35 | GGGTAGAC | -0.127
36 | GAATATTC | 0.417
37 | CTCCCGTC | -0.338
38 | GTCAGAAA | 0.0359
39 | ACGCGCGG | -0.271
40 | CTCCTGAC | -0.242
41 | ACCAGGAA | -0.129
42 | CTACATCA | 0.224
43 | CGAGCTCG | -0.0466
44 | AGTGCAAT | -0.0242

Row | Sequence | binding signal [E-score]
45 | ACCGATGC | -0.137
46 | AACCCTAT | -0.0286
47 | AACATTGT | 0.0865
48 | GACTTGCA | -0.0759
49 | CCGATGCA | 0.0404
50 | GCAGACAA | -0.0395
51 | CACTTTCG | -0.0513
52 | AGTGACAG | -0.0878
53 | AGCTACAT | 0.364
54 | AATTCAGA | 0.0748
55 | GACGAAAA | 0.0831
56 | GGCTGACA | -0.101
57 | GGTCCCCA | -0.327
58 | ATAGAAAC | 0.288
59 | CTCAAAGC | -0.213
60 | TCTCACAA | 0.0413
61 | TCTCGGCA | 0.145
62 | AATTCACA | 0.134
63 | GCCACTGA | -0.0539
64 | GATGCGGA | -0.167
65 | ACAAATAC | 0.249
66 | GGATCCAC | -0.117

Row | Sequence | binding signal [E-score]
67 | ATTTCTGC | 0.185
68 | CCTTCCCC | -0.337
69 | AACGGGCC | -0.417
70 | TCATGGGA | -0.123
71 | GGTACCGA | -0.0238
72 | ATTGAGGA | 0.0269
73 | CAAACAGA | -0.141
74 | ATGTTGTA | 0.223
75 | ACACCCGG | -0.155
76 | GCTCATTA | 0.00161
77 | AGAATTCG | 0.268
78 | AAGCGAAC | -0.192
79 | ATACTCTG | 0.155
80 | AGAGAAGC | 0.136
81 | ACTCTACC | -0.0638
82 | CATCCTCG | -0.271
83 | CTGCCAAA | -0.105
84 | AAGCAGTG | -0.155
85 | GCTGGCAA | -0.0219
86 | CAACAGGC | -0.15
87 | GTGACTAA | 0.192
88 | CTGTTAGA | 0.0215

Row | Sequence | binding signal [E-score]
89 | ACCAGCCC | -0.19
90 | CATTATCC | 0.0873
91 | CGCCAACA | -0.186
92 | CTGACACC | -0.357
93 | AGGCTGTC | -0.203
94 | AGCGAACC | -0.182
95 | CGGGACCC | -0.294
96 | TCGTTAAA | 0.139
97 | ATGCGTCG | 0.0289
98 | GCTTAACC | -0.192
99 | AGGACGCA | -0.14
100 | CAATAAGC | -0.0678
101 | CGGACAGA | -0.166
102 | CGCTTCAG | -0.0799
103 | CGCATGTC | -0.109
104 | AGAGTACC | 0.0344
105 | ATGCGACG | 0.068
106 | GACATAGC | -0.121
107 | CTGCGAAG | -0.0465
108 | GCAAGCAC | -0.127
109 | CGCGACTC | -0.29
110 | CCAATGTC | -0.0124
